Experimental data as given in a compilation of properties of binary mixtures (doi:10.1016/j.dib.2018.04.127).
Some of these densities may be calculated back from excess volumes.

Assay: xn = mol fraction of the nth substance listed
Settings: 303.15 K, 100 kPa

SMILES: CCCC(=O)OC(C)CCC (stereo unspecified) + CC(=O)[O-].CC[n+]1ccn(C)c1
- mass density (x2 = 0.6131): 1061.8 kg/m3
- mass density (x2 = 0.7001): 1068.8 kg/m3
- mass density (x2 = 0.7502): 1073 kg/m3
- mass density (x2 = 0.7993): 1077 kg/m3
- mass density (x2 = 0.8498): 1081.5 kg/m3
- mass density (x2 = 0.9501): 1090 kg/m3

SMILES: CCCC(=O)OC(C)CCC (stereo unspecified) + CCCC[n+]1ccn(C)c1.COS(=O)(=O)[O-]
- mass density (x1 = 0.0099): 1202.1 kg/m3
- mass density (x2 = 0.8986): 1183.8 kg/m3
- mass density (x2 = 0.9199): 1187.8 kg/m3
- mass density (x2 = 0.9602): 1195.8 kg/m3
- mass density (x2 = 0.98): 1199.7 kg/m3
